In the supplement of paper PMC12217912:
The other results are listed elsewhere or left out. Sequences were assembled here from the parent chain. Inactive controls read about 0.05.

B1: TEV protease; numbered along this chain (parent)
chain: MGESLFKGPRDYNPISSSICHLTNESDGHTTSLYGIGFGPFIITNKHLFRRNNGTLVVQSLHGVFKVKDTTTLQQHLVDGRDMIIIRMPKDFPPFPQKLKFREPQREERICLVTTNFQTKSMSSMVSDTSCTFPSGDGIFWKHWIQTKDGQCGSPLVSTRDGFIVGIHSASNFTNTNNYFTSVPKNFMELLTNQEAQQWVSGWRLNADSVLWGGHKVFMVKPEEPFQPVKEATQL

Variants of: B1
Test: raw area under fraction-flipped curve 0-4 h after induction (AUC4h, not background-subtracted), DNA-recorder readout of cleavage of the substrate (dimensionless); higher = more cleavage of the substrate by the protease variant
Settings: temperature: 34 °C; time window: 0-4 h after rhamnose induction
Protocol: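 In vivo DNA recorder in E. coli TOP10(DE3) ΔrhaA at 34 °C. Each TEVp single-site mutant (parent TEVp 0) is paired with a single-site variant of the 7-mer TEVs (canonical ENLYFQ|S). The substrate sits between flexible linkers in a Bxb1-sfGFP-TEVs-SsrA fusion, so cleavage stabilises Bxb1 and speeds flipping of a recombination array, read by NGS. The value is the raw area under the fraction-flipped curve over 0-4 h after rhamnose induction (AUC4h), with ≥20 reads per time point. It is not background-subtracted; inactive controls average about 0.047.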
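Also: Bxb1 expression induced with 0.2% (w/v) L-rhamnose at OD600 near 0.5, cultures sampled hourly, flipped fraction per protease–substrate barcode pair counted by paired-end Illumina sequencing.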

Variant	area with substrate ENAYFQS	area with substrate ENCYFQS	area with substrate ENDYFQS	area with substrate ENEYFQS	area with substrate ENFYFQS	area with substrate ENGYFQS	area with substrate ENKYFQS	area with substrate ENPYFQS	area with substrate ENQYFQS	area with substrate ENRYFQS	area with substrate ENSYFQS	area with substrate ENTYFQS	area with substrate ENVYFQS	area with substrate ENWYFQS	area with substrate ENYYFQS	area with substrate ENHYFQS	area with substrate ENIYFQS	area with substrate ENNYFQS	area with substrate ENMYFQS
MGESLFKGPRDYNPISSSICHLTNESDGHTTSLYGIGFGPFIITNKHLFRRNNGTLVVQSLHGNFKVKDTTTLQQHLVDGRDMIIIRMPKDFPPFPQKLKFREPQREERICLVTTNFQTKSMSSMVSDTSCTFPSGDGIFWKHWIQTKDGQCGSPLVSTRDGFIVGIHSASNFTNTNNYFTSVPKNFMELLTNQEAQQWVSGWRLNADSVLWGGHKVFMVKPEEPFQPVKEATQL [V64N]	0.0596	0.0648	0.0481	0.0582	0.0572	0.0626	0.0669	0.0647	0.0449	0.0616	0.0665	0.0572	0.0538	0.0734	0.0476				
MGESLFKGPRDYNPISSSICHLTNESDGHTTSLYGIGFGPFIITNKHLFRRNNGTLVVQSLHGVFRVKDTTTLQQHLVDGRDMIIIRMPKDFPPFPQKLKFREPQREERICLVTTNFQTKSMSSMVSDTSCTFPSGDGIFWKHWIQTKDGQCGSPLVSTRDGFIVGIHSASNFTNTNNYFTSVPKNFMELLTNQEAQQWVSGWRLNADSVLWGGHKVFMVKPEEPFQPVKEATQL [K66R]	0.0577		0.0719	0.046	0.0652			0.0383	0.0749			0.0704	0.0819		0.0872	0.0918	0.102	0.0691	
MGESLFKGPRDYNPISSSICHLTNESDGHTTSLYGIGFGPFIITNKHLFRRNNGTLVVQSLHGVFFVKDTTTLQQHLVDGRDMIIIRMPKDFPPFPQKLKFREPQREERICLVTTNFQTKSMSSMVSDTSCTFPSGDGIFWKHWIQTKDGQCGSPLVSTRDGFIVGIHSASNFTNTNNYFTSVPKNFMELLTNQEAQQWVSGWRLNADSVLWGGHKVFMVKPEEPFQPVKEATQL [K66F]	0.0612		0.0565	0.057	0.0606	0.0687	0.0419		0.0639		0.0752	0.0696	0.0814			0.063	0.113	0.0683	0.0645
MGESLFKGPRDYNPISSSICHLTNESDGHTTSLYGIGFGPFIITNKHLFRRNNGTLVVQSLNGVFKVKDTTTLQQHLVDGRDMIIIRMPKDFPPFPQKLKFREPQREERICLVTTNFQTKSMSSMVSDTSCTFPSGDGIFWKHWIQTKDGQCGSPLVSTRDGFIVGIHSASNFTNTNNYFTSVPKNFMELLTNQEAQQWVSGWRLNADSVLWGGHKVFMVKPEEPFQPVKEATQL [H62N]	0.0682	0.0684		0.0567	0.0643		0.0436		0.0635		0.0743		0.0877		0.0507		0.0884	0.0649	
MGESLFKGPRDYNPISSSICHLTNESDGHTTSLYGIGFGPFIITNKHLFRRNNGTLVVQSAHGVFKVKDTTTLQQHLVDGRDMIIIRMPKDFPPFPQKLKFREPQREERICLVTTNFQTKSMSSMVSDTSCTFPSGDGIFWKHWIQTKDGQCGSPLVSTRDGFIVGIHSASNFTNTNNYFTSVPKNFMELLTNQEAQQWVSGWRLNADSVLWGGHKVFMVKPEEPFQPVKEATQL [L61A]	0.0471	0.0626	0.0601	0.0658		0.057	0.0577		0.0613	0.0637	0.0533	0.0558				0.0476		0.0618	0.0966
MGESLFKGPRDYNPISSSICHLTNESDGHTTSLYGIGFGPFIITNKHLFRRNNGTLVVQSNHGVFKVKDTTTLQQHLVDGRDMIIIRMPKDFPPFPQKLKFREPQREERICLVTTNFQTKSMSSMVSDTSCTFPSGDGIFWKHWIQTKDGQCGSPLVSTRDGFIVGIHSASNFTNTNNYFTSVPKNFMELLTNQEAQQWVSGWRLNADSVLWGGHKVFMVKPEEPFQPVKEATQL [L61N]	0.0633			0.0711	0.0735		0.0672	0.0565	0.0629	0.0628		0.094			0.0557		0.112		
MGESLFKGPRDYNPISSSICHLTNESDGHTTSLYGIGFGPFIITNKHLFRRNNGTLVVQSLHGVFKRKDTTTLQQHLVDGRDMIIIRMPKDFPPFPQKLKFREPQREERICLVTTNFQTKSMSSMVSDTSCTFPSGDGIFWKHWIQTKDGQCGSPLVSTRDGFIVGIHSASNFTNTNNYFTSVPKNFMELLTNQEAQQWVSGWRLNADSVLWGGHKVFMVKPEEPFQPVKEATQL [V67R]	0.055		0.0531	0.0523	0.0571			0.0498	0.0547		0.0554	0.0722	0.0537		0.0513	0.0521		0.0401	0.0493
MGESLFKGPRDYNPISSSICHLTNESDGHTTSLYGIGFGPFIITNKHLFRRNNGTLVVQVLHGVFKVKDTTTLQQHLVDGRDMIIIRMPKDFPPFPQKLKFREPQREERICLVTTNFQTKSMSSMVSDTSCTFPSGDGIFWKHWIQTKDGQCGSPLVSTRDGFIVGIHSASNFTNTNNYFTSVPKNFMELLTNQEAQQWVSGWRLNADSVLWGGHKVFMVKPEEPFQPVKEATQL [S60V]	0.0547	0.062	0.0509	0.0444	0.0549	0.0635			0.0492	0.048	0.0597	0.0646	0.0587	0.0441	0.0656	0.0515	0.105	0.0526	0.0951
MGESLFKGPRDYNPISSSICHLTNESDGHTTSLYGIGFGPFIITNKHLFRRNNGTLVVQFLHGVFKVKDTTTLQQHLVDGRDMIIIRMPKDFPPFPQKLKFREPQREERICLVTTNFQTKSMSSMVSDTSCTFPSGDGIFWKHWIQTKDGQCGSPLVSTRDGFIVGIHSASNFTNTNNYFTSVPKNFMELLTNQEAQQWVSGWRLNADSVLWGGHKVFMVKPEEPFQPVKEATQL [S60F]	0.0636	0.0503	0.035	0.0537	0.0591	0.0584			0		0.0613	0.0714	0.0925		0.0597				0.0728
MGESLFKGPRDYNPISSSICHLTNESDGHTTSLYGIGFGPFIITNKHLFRRNNGTLVVQSLHGVFKVKHTTTLQQHLVDGRDMIIIRMPKDFPPFPQKLKFREPQREERICLVTTNFQTKSMSSMVSDTSCTFPSGDGIFWKHWIQTKDGQCGSPLVSTRDGFIVGIHSASNFTNTNNYFTSVPKNFMELLTNQEAQQWVSGWRLNADSVLWGGHKVFMVKPEEPFQPVKEATQL [D69H]	0.0254	0.0643	0.0608	0.0598	0.063	0.0569		0.0686	0.0524	0.0625	0.0643	0.0589	0.0706	0.0684		0.0663		0.0519	0.0686
MGESLFKGPRDYNPISSSICHLTNESDGHTTSLYGIGFGPFIITNKHLFRRNNGTLVVQSLHGVFKVKQTTTLQQHLVDGRDMIIIRMPKDFPPFPQKLKFREPQREERICLVTTNFQTKSMSSMVSDTSCTFPSGDGIFWKHWIQTKDGQCGSPLVSTRDGFIVGIHSASNFTNTNNYFTSVPKNFMELLTNQEAQQWVSGWRLNADSVLWGGHKVFMVKPEEPFQPVKEATQL [D69Q]	0.0542	0.0666	0.0513	0.0708	0.0598	0.0665	0.0677	0.0612	0.0602	0.0438	0.0763	0.068		0.0534	0.0596	0.0614	0.0964	0.0547	
MGESLFKGPRDYNPISSSICHLTNESDGHTTSLYGIGFGPFIITNKHLFRRNNGTLVVQSLHMVFKVKDTTTLQQHLVDGRDMIIIRMPKDFPPFPQKLKFREPQREERICLVTTNFQTKSMSSMVSDTSCTFPSGDGIFWKHWIQTKDGQCGSPLVSTRDGFIVGIHSASNFTNTNNYFTSVPKNFMELLTNQEAQQWVSGWRLNADSVLWGGHKVFMVKPEEPFQPVKEATQL [G63M]	0.0645	0.0621	0.0674	0.0574	0.06	0.0716	0.0631		0.0608	0.0579	0.0608		0.0774			0.0395	0.0889	0.057	0.0716
MGESLFKGPRDYNPISSSICHLTNESDGHTTSLYGIGFGPFIITNKHLFRRNNGTLVVQSLHNVFKVKDTTTLQQHLVDGRDMIIIRMPKDFPPFPQKLKFREPQREERICLVTTNFQTKSMSSMVSDTSCTFPSGDGIFWKHWIQTKDGQCGSPLVSTRDGFIVGIHSASNFTNTNNYFTSVPKNFMELLTNQEAQQWVSGWRLNADSVLWGGHKVFMVKPEEPFQPVKEATQL [G63N]	0.0678		0.0494	0.0652	0.0532	0.0475			0.0445	0.0501	0.0517	0.0549					0.0719	0.0382	0.0773
MGESLFKGPRDYNPISSSICHLTNESDGHTTSLYGIGFGPFIITNKHLFRRNNGTLVVQSLHIVFKVKDTTTLQQHLVDGRDMIIIRMPKDFPPFPQKLKFREPQREERICLVTTNFQTKSMSSMVSDTSCTFPSGDGIFWKHWIQTKDGQCGSPLVSTRDGFIVGIHSASNFTNTNNYFTSVPKNFMELLTNQEAQQWVSGWRLNADSVLWGGHKVFMVKPEEPFQPVKEATQL [G63I]	0.0651	0.0564	0.0645	0.0617		0.0538		0.0576	0.0621	0.0916	0.072	0.0689	0.0652	0.0517				0.0559	0.0649
MGESLFKGPRDYNPISSSICHLTNESDGHTTSLYGIGFGPFIITNKHLFRRNNGTLVVQSLHGVFKVKDTATLQQHLVDGRDMIIIRMPKDFPPFPQKLKFREPQREERICLVTTNFQTKSMSSMVSDTSCTFPSGDGIFWKHWIQTKDGQCGSPLVSTRDGFIVGIHSASNFTNTNNYFTSVPKNFMELLTNQEAQQWVSGWRLNADSVLWGGHKVFMVKPEEPFQPVKEATQL [T71A]	0.0619	0.0419		0.0638	0.0529	0.0549	0.066	0.0693	0.0593		0.0681	0.0587	0.0346	0.0679			0.121		0.179
MGESLFKGPRDYNPISSSICHLTNESDGHTTSLYGIGFGPFIITNKHLFRRNNGTLMVQSLHGVFKVKDTTTLQQHLVDGRDMIIIRMPKDFPPFPQKLKFREPQREERICLVTTNFQTKSMSSMVSDTSCTFPSGDGIFWKHWIQTKDGQCGSPLVSTRDGFIVGIHSASNFTNTNNYFTSVPKNFMELLTNQEAQQWVSGWRLNADSVLWGGHKVFMVKPEEPFQPVKEATQL [V57M]	0.0656	0.0659	0.0583	0.0656		0.061	0.0701		0.0607	0.0574	0.0526	0.0646	0.0743		0.0603		0.0936		0.0697
MGESLFKGPRDYNPISSSICHLTNESDGHTTSLYGIGFGPFIITNKHLFRRNNGTLKVQSLHGVFKVKDTTTLQQHLVDGRDMIIIRMPKDFPPFPQKLKFREPQREERICLVTTNFQTKSMSSMVSDTSCTFPSGDGIFWKHWIQTKDGQCGSPLVSTRDGFIVGIHSASNFTNTNNYFTSVPKNFMELLTNQEAQQWVSGWRLNADSVLWGGHKVFMVKPEEPFQPVKEATQL [V57K]	0.0628		0.0673	0.0593		0.0629	0.0564		0.0526	0.0748	0.101		0.125			0.0516		0.0541	
MGESLFKGPRDYNPISSSICHLTNESDGHTTSLYGIGFGPFIITNKHLFRRNNGTLTVQSLHGVFKVKDTTTLQQHLVDGRDMIIIRMPKDFPPFPQKLKFREPQREERICLVTTNFQTKSMSSMVSDTSCTFPSGDGIFWKHWIQTKDGQCGSPLVSTRDGFIVGIHSASNFTNTNNYFTSVPKNFMELLTNQEAQQWVSGWRLNADSVLWGGHKVFMVKPEEPFQPVKEATQL [V57T]	0.0625		0.0622	0.0552		0.0857	0.0777	0.0488	0.0707	0.06	0.0537		0.0741		0.0599			0.0515	
